# Measurements taken from the supplement of paper PMC10037445.
# In all, about 2,900 compounds were measured (“NF-kB SEAP reporter activity, fold change vs agonist alone”: median about 0.99, highest 2% from about 2.6 on). The list shows a part of the results.
# Assays:
# [1] = system: RAW-Dual; experiment: NF-kB SEAP reporter activity, fold change vs agonist alone; cytotoxicity flag (confluency mask): not cytotoxic; higher = enhanced NF-kB activity
# How it was run: (§1)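 Reporter activity is given as fold change relative to agonist-alone wells. To measure it, 50 nL of library stock was pin-tooled onto RAW-Dual macrophages (50,000 cells/well, DMEM, 384-well plates), a PRR agonist followed 1 h later, and cells stayed at 37 °C, 5% CO2. Twenty hours on, supernatant was assayed for IRF (QuantiLuc luminescence) and NF-κB (QuantiBlue, 620 nm absorbance), and wells under 70% of agonist-control IncuCyte confluency in both mask sets were marked cytotoxic.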
# [2] = system: RAW-Dual; experiment: NF-kB SEAP reporter activity, fold change vs agonist alone; higher = enhanced NF-kB activity; conditions: library stock concentration (final ~1000-fold dilution): 10 mM
# How it was run: as §1
# [3] = system: RAW-Dual; experiment: NF-kB SEAP reporter activity, fold change vs agonist alone; cytotoxicity flag (confluency mask): cytotoxic (confluency <70% of control); higher = enhanced NF-kB activity
# How it was run: as §1
# [4] = agonist: ODN 1826 (TLR9) 0.5 ug/mL
# [5] = agonist: Pam2CSK4 (TLR2/6) 0.1 ug/mL
# [6] = agonist: Pam3CSK4 (TLR2/1) 0.1 ug/mL
# [7] = cytotoxicity flag (confluency mask): not cytotoxic, agonist: Imiquimod (TLR7) […]
# [8] = cytotoxicity flag (confluency mask): not cytotoxic, agonist: MPLA (TLR4) […]
structure (smiles),measurement,setting,value
CC(=O)C1CCC2C3CC=C4CC(O)CCC4(C)C3CCC12C (stereo not drawn) (library stock concentration (final ~1000-fold dilution): 10 mM),NF-kB SEAP reporter activity,[1]; agonist: LPS (TLR4) 0.1 ug/mL,1.1
same,NF-kB SEAP reporter activity,[1]; [4],0.897
same,NF-kB SEAP reporter activity,[1]; [5],0.904
same,NF-kB SEAP reporter activity,[1]; [6],0.972
CC(=O)C1CCC2C3CC=C4CC(O)CCC4(C)C3CCC12C (stereo not drawn),NF-kB SEAP reporter activity,[2]; [7],1.07
same,NF-kB SEAP reporter activity,[2]; [8],1.3
O=c1cc(-c2ccc(O)cc2)oc2cc(O)cc(O)c12,NF-kB SEAP reporter activity,[2]; [7],1.89
same,NF-kB SEAP reporter activity,[2]; [8],1.52
O=c1cc(-c2ccc(O)cc2)oc2cc(O)cc(O)c12 (library stock concentration (final ~1000-fold dilution): 10 mM),NF-kB SEAP reporter activity,[1]; agonist: LPS (TLR4) 0.1 ug/mL,1.88
same,NF-kB SEAP reporter activity,[1]; [4],1.8
same,NF-kB SEAP reporter activity,[1]; [5],1.88
same,NF-kB SEAP reporter activity,[1]; [6],1.77
CC(C)n1nc(-c2cc3cc(O)ccc3[nH]2)c2c(N)ncnc21 (library stock concentration (final ~1000-fold dilution): 10 mM),NF-kB SEAP reporter activity,[1]; agonist: LPS (TLR4) 0.1 ug/mL,3.13
same,NF-kB SEAP reporter activity,[1]; [4],0.998
same,NF-kB SEAP reporter activity,[1]; [5],1.01
same,NF-kB SEAP reporter activity,[1]; [6],0.904
CC(C)n1nc(-c2cc3cc(O)ccc3[nH]2)c2c(N)ncnc21,NF-kB SEAP reporter activity,[2]; [7],0.933
same,NF-kB SEAP reporter activity,[2]; [8],0.941
NC(=O)N1c2ccccc2C=Cc2ccccc21 (library stock concentration (final ~1000-fold dilution): 10 mM),NF-kB SEAP reporter activity,[1]; agonist: LPS (TLR4) 0.1 ug/mL,1.15
same,NF-kB SEAP reporter activity,[1]; [4],1.06
same,NF-kB SEAP reporter activity,[1]; [5],1.08
same,NF-kB SEAP reporter activity,[1]; [6],1.13
NC(=O)N1c2ccccc2C=Cc2ccccc21,NF-kB SEAP reporter activity,[2]; [7],0.909
same,NF-kB SEAP reporter activity,[2]; [8],0.997
C=CC(=O)N1CCN(C(=O)CNc2cc(I)c(Cl)cc2O)CC1 (library stock concentration (final ~1000-fold dilution): 10 mM),NF-kB SEAP reporter activity,[1]; agonist: LPS (TLR4) 0.1 ug/mL,0.355
same,NF-kB SEAP reporter activity,[1]; [4],0.326
same,NF-kB SEAP reporter activity,[1]; [5],0.35
same,NF-kB SEAP reporter activity,[1]; [6],0.484
C=CC(=O)N1CCN(C(=O)CNc2cc(I)c(Cl)cc2O)CC1,NF-kB SEAP reporter activity,[2]; [7],0.573
same,NF-kB SEAP reporter activity,[2]; [8],0.616
Cc1ccccc1CN1C(=O)C2=C(CCN(Cc3ccccc3)C2)N2CCN=C12 (library stock concentration (final ~1000-fold dilution): 10 mM),NF-kB SEAP reporter activity,[1]; agonist: LPS (TLR4) 0.1 ug/mL,1.25
same,NF-kB SEAP reporter activity,[1]; [4],0.952
same,NF-kB SEAP reporter activity,[1]; [5],0.787
same,NF-kB SEAP reporter activity,[1]; [6],0.924
Cc1ccccc1CN1C(=O)C2=C(CCN(Cc3ccccc3)C2)N2CCN=C12,NF-kB SEAP reporter activity,[2]; [7],0.845
same,NF-kB SEAP reporter activity,[2]; [8],1.17
COC1/C=C/OC2(C)Oc3c(C)c(O)c4c(O)c(c(/C=N/N5CCN(C6CCCC6)CC5)c(O)c4c3C2=O)NC(=O)/C(C)=C/C=C/C(C)C(O)C(C)C(O)C(C)C(OC(C)=O)C1C (stereo not drawn) (library stock concentration (final ~1000-fold dilution): 10 mM),NF-kB SEAP reporter activity,[1]; agonist: LPS (TLR4) 0.1 ug/mL,1.56
same,NF-kB SEAP reporter activity,[1]; [4],0.892
same,NF-kB SEAP reporter activity,[1]; [5],0.643
same,NF-kB SEAP reporter activity,[1]; [6],0.742
COC1/C=C/OC2(C)Oc3c(C)c(O)c4c(O)c(c(/C=N/N5CCN(C6CCCC6)CC5)c(O)c4c3C2=O)NC(=O)/C(C)=C/C=C/C(C)C(O)C(C)C(O)C(C)C(OC(C)=O)C1C (stereo not drawn),NF-kB SEAP reporter activity,[2]; [7],1.11
same,NF-kB SEAP reporter activity,[2]; [8],0.969
CCC1(O)C(=O)OCc2c1cc1n(c2=O)Cc2cc3c(CN(C)C)c(O)ccc3nc2-1 (stereo not drawn) (library stock concentration (final ~1000-fold dilution): 10 mM),NF-kB SEAP reporter activity,[1]; agonist: LPS (TLR4) 0.1 ug/mL,2.01
same,NF-kB SEAP reporter activity,[1]; [4],1.59
same,NF-kB SEAP reporter activity,[1]; [5],0.849
same,NF-kB SEAP reporter activity,[1]; [6],1.27
CCC1(O)C(=O)OCc2c1cc1n(c2=O)Cc2cc3c(CN(C)C)c(O)ccc3nc2-1 (stereo not drawn),NF-kB SEAP reporter activity,[2]; [7],1.46
same,NF-kB SEAP reporter activity,[2]; [8],1.93
Nc1ncnc2c1C(=O)N(c1ccc(C3CCC(CC(=O)O)CC3)cc1)CCO2 (stereo not drawn) (library stock concentration (final ~1000-fold dilution): 10 mM),NF-kB SEAP reporter activity,[1]; agonist: LPS (TLR4) 0.1 ug/mL,0.948
same,NF-kB SEAP reporter activity,[1]; [4],1.05
same,NF-kB SEAP reporter activity,[1]; [5],1.11
same,NF-kB SEAP reporter activity,[1]; [6],1.32
Nc1ncnc2c1C(=O)N(c1ccc(C3CCC(CC(=O)O)CC3)cc1)CCO2 (stereo not drawn),NF-kB SEAP reporter activity,[2]; [7],0.994
same,NF-kB SEAP reporter activity,[2]; [8],1.18
NC(CO)(CO)CO,NF-kB SEAP reporter activity,[2]; [7],0.912
same,NF-kB SEAP reporter activity,[2]; [8],1.03
NC(CO)(CO)CO (library stock concentration (final ~1000-fold dilution): 10 mM),NF-kB SEAP reporter activity,[1]; agonist: LPS (TLR4) 0.1 ug/mL,1.11
same,NF-kB SEAP reporter activity,[1]; [4],0.933
same,NF-kB SEAP reporter activity,[1]; [5],1.02
same,NF-kB SEAP reporter activity,[1]; [6],1.05
O=C(CCCCCCNC(=O)c1cnc(N(c2ccccc2)c2ccccc2)nc1)NO (library stock concentration (final ~1000-fold dilution): 10 mM),NF-kB SEAP reporter activity,[3]; agonist: LPS (TLR4) 0.1 ug/mL,4.12
same,NF-kB SEAP reporter activity,[3]; [4],1.3
same,NF-kB SEAP reporter activity,[3]; [5],0.825
same,NF-kB SEAP reporter activity,[3]; [6],1.08
O=C(CCCCCCNC(=O)c1cnc(N(c2ccccc2)c2ccccc2)nc1)NO,NF-kB SEAP reporter activity,"[2]; cytotoxicity flag (confluency mask): cytotoxic (confluency <70% of control), agonist: Imiquimod (TLR7) […]",1.12
same,NF-kB SEAP reporter activity,"[2]; cytotoxicity flag (confluency mask): cytotoxic (confluency <70% of control), agonist: MPLA (TLR4) […]",2.14
C/C1=C/CC[C@@]2(C)O[C@@H]2[C@H]2OC(=O)[C@H](CN(C)C)[C@@H]2CC1,NF-kB SEAP reporter activity,[2]; [7],0.137
same,NF-kB SEAP reporter activity,[2]; [8],0.246
C/C1=C/CC[C@@]2(C)O[C@@H]2[C@H]2OC(=O)[C@H](CN(C)C)[C@@H]2CC1 (library stock concentration (final ~1000-fold dilution): 10 mM),NF-kB SEAP reporter activity,[1]; agonist: LPS (TLR4) 0.1 ug/mL,0.302
same,NF-kB SEAP reporter activity,[1]; [4],0.185
same,NF-kB SEAP reporter activity,[1]; [5],0.197
same,NF-kB SEAP reporter activity,[1]; [6],0.151
O.S=c1nc[nH]c2nc[nH]c12 (library stock concentration (final ~1000-fold dilution): 10 mM),NF-kB SEAP reporter activity,[1]; agonist: LPS (TLR4) 0.1 ug/mL,1.05
same,NF-kB SEAP reporter activity,[1]; [4],0.808
same,NF-kB SEAP reporter activity,[1]; [5],0.594
same,NF-kB SEAP reporter activity,[1]; [6],0.684
O.S=c1nc[nH]c2nc[nH]c12,NF-kB SEAP reporter activity,[2]; [7],0.752
same,NF-kB SEAP reporter activity,[2]; [8],0.963
